# Laboratory results published in the supplement of paper PMC8728848.
# The other results are listed elsewhere or left out.
# Columns and labels:
# Assay in all cases: glycan array binding signal (z-score within array); higher = stronger binding
# Details in all cases: glycan notation: IUPAC condensed, linker removed
# [1] = biological target: Neu5Ac(a2-6)Gal(b1-4)GlcNAc(b1-2)Man(a1-3)[Man(a1-6)]Man(b1-4)GlcNAc(b1-4)GlcNAc
# Summary of the method: (§1)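 The binding signal is a Z-score computed within each array. Data were drawn from 3228 arrays in the Consortium for Functional Glycomics database, restricted to those with a known protein sequence. Scores were averaged over arrays of the same protein sequence at different concentrations or buffers, and over linkers, and negative values can be taken as non-binding.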
# [2] = biological target: Neu5Ac(a2-6)Gal(b1-4)GlcNAc(b1-2)Man(a1-3)[Neu5Ac(a2-3)Gal(b1-4)GlcNAc(b1-2)Man(a1-6)]Man(b1-4)GlcNAc(b1-4)GlcNAc
# Summary of the method: as §1
# [3] = biological target: Neu5Ac(a2-6)Gal(b1-4)GlcNAc(b1-2)Man(a1-3)[Neu5Ac(a2-6)Gal(b1-4)GlcNAc(b1-2)Man(a1-6)]Man(b1-4)GlcNAc(b1-4)GlcNAc
# Summary of the method: as §1
# [4] = biological target: Neu5Ac(a2-6)Gal(b1-4)GlcNAc(b1-2)Man(a1-3)[Neu5Ac(a2-6)Gal(b1-4)GlcNAc(b1-2)Man(a1-6)]Man(b1-4)GlcNAc(b1-4)[Fuc(a1-6)]GlcNAc
# Summary of the method: as §1
# [5] = biological target: Neu5Ac(a2-6)Gal(b1-4)GlcNAc(b1-2)Man(a1-6)Man(b1-4)GlcNAc(b1-4)GlcNAc
# Summary of the method: as §1
# [6] = biological target: Neu5Ac(a2-6)Gal(b1-4)GlcNAc(b1-2)Man(a1-6)[Gal(b1-4)GlcNAc(b1-2)Man(a1-3)]Man(b1-4)GlcNAc(b1-4)GlcNAc
# Summary of the method: as §1
# [7] = biological target: Neu5Ac(a2-6)Gal(b1-4)GlcNAc(b1-2)Man(a1-6)[GlcNAc(b1-2)Man(a1-3)]Man(b1-4)GlcNAc(b1-4)GlcNAc
# Summary of the method: as §1
# [8] = biological target: Neu5Ac(a2-6)Gal(b1-4)GlcNAc(b1-2)Man(a1-6)[Man(a1-3)]Man(b1-4)GlcNAc(b1-4)GlcNAc
# Summary of the method: as §1
# [9] = biological target: Neu5Ac(a2-6)Gal(b1-4)GlcNAc(b1-2)[Neu5Ac(a2-6)Gal(b1-4)GlcNAc(b1-4)]Man(a1-3)[GlcNAc(b1-4)][Neu5Ac(a2-6)Gal(b1-4)GlcNAc(b1-2)[Neu5Ac(a2-6)Gal(b1-4)GlcNAc(b1-6)]Man(a1-6)]Man(b1-4)GlcNAc(b1-4)GlcNAc
# Summary of the method: as §1
# [10] = biological target: Neu5Ac(a2-6)Gal(b1-4)GlcNAc(b1-2)[Neu5Ac(a2-6)Gal(b1-4)GlcNAc(b1-4)]Man(a1-3)[GlcNAc(b1-4)][Neu5Ac(a2-6)Gal(b1-4)GlcNAc(b1-4)Man(a1-6)]Man(b1-4)GlcNAc(b1-4)GlcNAc
# Summary of the method: as §1
# [11] = biological target: Neu5Ac(a2-6)Gal(b1-4)GlcNAc(b1-2)[Neu5Ac(a2-6)Gal(b1-4)GlcNAc(b1-6)]Man(a1-6)[Neu5Ac(a2-6)Gal(b1-4)GlcNAc(b1-2)Man(a1-3)][GlcNAc(b1-4)]Man(b1-4)GlcNAc(b1-4)GlcNAc
# Summary of the method: as §1
# [12] = biological target: Neu5Ac(a2-6)Gal(b1-4)GlcNAc(b1-3)Gal(b1-3)GlcNAc
# Summary of the method: as §1
# [13] = biological target: Neu5Ac(a2-6)Gal(b1-4)GlcNAc(b1-3)Gal(b1-4)GlcNAc
# Summary of the method: as §1
# [14] = biological target: Neu5Ac(a2-6)Gal(b1-4)GlcNAc(b1-3)Gal(b1-4)GlcNAc(b1-2)Man(a1-3)[Neu5Ac(a2-6)Gal(b1-4)GlcNAc(b1-3)Gal(b1-4)GlcNAc(b1-2)Man(a1-6)]GalNAc
# Summary of the method: as §1
# [15] = biological target: Neu5Ac(a2-6)Gal(b1-4)GlcNAc(b1-3)Gal(b1-4)GlcNAc(b1-3)Gal(b1-4)GlcNAc
# Summary of the method: as §1
# [16] = biological target: Neu5Ac(a2-6)Gal(b1-4)GlcNAc(b1-3)Gal(b1-4)GlcNAc(b1-3)Gal(b1-4)GlcNAc(b1-2)Man(a1-3)[Neu5Ac(a2-6)Gal(b1-4)GlcNAc(b1-3)Gal(b1-4)GlcNAc(b1-3)Gal(b1-4)GlcNAc(b1-2)Man(a1-6)]GalNAc
# Summary of the method: as §1
# [17] = biological target: Neu5Ac(a2-6)Gal(b1-4)GlcNAc(b1-3)Gal(b1-4)GlcNAc(b1-3)GalNAc
# Summary of the method: as §1
# [18] = biological target: Neu5Ac(a2-6)Gal(b1-4)GlcNAc(b1-3)Gal(b1-4)GlcNAc(b1-3)[Neu5Ac(a2-6)Gal(b1-4)GlcNAc(b1-3)Gal(b1-4)GlcNAc(b1-6)]GalNAc
# Summary of the method: as §1
# [19] = biological target: Neu5Ac(a2-6)Gal(b1-4)GlcNAc(b1-3)Gal(b1-4)GlcNAc(b1-6)[Gal(b1-3)]GalNAc
# Summary of the method: as §1
# [20] = biological target: Neu5Ac(a2-6)Gal(b1-4)GlcNAc(b1-3)Gal(b1-4)[Fuc(a1-3)]GlcNAc(b1-3)Gal(b1-4)[Fuc(a1-3)]GlcNAc
# Summary of the method: as §1
# [21] = biological target: Neu5Ac(a2-6)Gal(b1-4)GlcNAc(b1-3)GalNAc
# Summary of the method: as §1
# [22] = biological target: Neu5Ac(a2-6)Gal(b1-4)GlcNAc(b1-3)[Neu5Ac(a2-6)Gal(b1-4)GlcNAc(b1-6)]GalNAc
# Summary of the method: as §1
# [23] = biological target: Neu5Ac(a2-6)Gal(b1-4)GlcNAc(b1-6)GalNAc
# Summary of the method: as §1
# [24] = biological target: Neu5Ac(a2-6)Gal(b1-4)GlcNAc(b1-6)[Gal(b1-3)GlcNAc(b1-3)]Gal(b1-4)Glc
# Summary of the method: as §1
# [25] = biological target: Neu5Ac(a2-6)Gal(b1-4)GlcNAc(b1-6)[Gal(b1-3)]GalNAc
# Summary of the method: as §1
# [26] = biological target: Neu5Ac(a2-6)Gal(b1-4)GlcNAc6S
# Summary of the method: as §1
# Neu5Ac(a2-6)GalNAc = biological target: Neu5Ac(a2-6)GalNAc
# Summary of the method: as §1
# [27] = biological target: Neu5Ac(a2-6)GalNAc(b1-4)GlcNAc
# Summary of the method: as §1
# [28] = biological target: Neu5Ac(a2-6)GalNAc(b1-4)GlcNAc6S
# Summary of the method: as §1
# [29] = biological target: Neu5Ac(a2-6)GlcNAc(b1-4)GlcNAc
# Summary of the method: as §1
# [30] = biological target: Neu5Ac(a2-6)GlcNAc(b1-4)GlcNAc(b1-4)GlcNAc
# Summary of the method: as §1
binder,measurement,setting,value
"AFL5 (Aspergillus fumigatus), Q4WB00 (protein) MDNFMEMTKKLGHQPELLRLRALDATYDDALEGKLVVAPLDMSEPGKKILDSGTADGTWLRNVRSKQSVPHDYYGSDVEGELFPKDPDGITYFAHSFKDPWPQQYLGFFDLVHIRGSLAGSAPEGPAPVIQNLTTLLKPGGWVQLMEMNAFSPPPNGPAMTDFAKMASEMFTGIGVGDFANNNKSMLEDAGLKNVQEKRVIVNLGKKAKPELHDQSIHGVTGPIVPLTSVARTVKSSFTGEQLDALPARVKEELETEGGQVEMIIAFGQKA",glycan array binding signal (z-score),[1],-0.084
same,glycan array binding signal (z-score),[2],0.04
same,glycan array binding signal (z-score),[3],1.03
same,glycan array binding signal (z-score),[4],0.123
same,glycan array binding signal (z-score),[5],-0.018
same,glycan array binding signal (z-score),[6],0.02
same,glycan array binding signal (z-score),[7],-0.146
same,glycan array binding signal (z-score),[8],-0.379
same,glycan array binding signal (z-score),[9],-0.169
same,glycan array binding signal (z-score),[10],0.082
same,glycan array binding signal (z-score),[11],-0.153
same,glycan array binding signal (z-score),[12],-0.045
same,glycan array binding signal (z-score),[13],-0.438
same,glycan array binding signal (z-score),[14],0.677
same,glycan array binding signal (z-score),[15],0.08
same,glycan array binding signal (z-score),[16],2.17
same,glycan array binding signal (z-score),[17],-0.298
same,glycan array binding signal (z-score),[18],0.005
same,glycan array binding signal (z-score),[19],0.362
same,glycan array binding signal (z-score),[20],-0.222
same,glycan array binding signal (z-score),[21],-0.271
same,glycan array binding signal (z-score),[22],0.013
same,glycan array binding signal (z-score),[23],0.281
same,glycan array binding signal (z-score),[24],0.021
same,glycan array binding signal (z-score),[25],0.023
same,glycan array binding signal (z-score),[26],-0.448
same,glycan array binding signal (z-score),Neu5Ac(a2-6)GalNAc,-0.731
same,glycan array binding signal (z-score),[27],-0.664
same,glycan array binding signal (z-score),[28],0.024
same,glycan array binding signal (z-score),[29],0.209
same,glycan array binding signal (z-score),[30],-0.061
